# B1: hT4VL.FRv40548 (antibody, human IgG1, kappa)
# heavy: EVQLVESGGGLVQPGGSLRLSCAASGYTFTSYVMHWVRQAPGKGLEWVSAINPYNDGNYYADSVKGRFTISRDNSRKTLYLQMNSLRAEDTAVYYCARGAYKRGYAMDYWGQGTTVTVSSASTKGPSVFPLAPSSKSTSGGTAALGCLVKDYFPEPVTVSWNSGALTSGVHTFPAVLQSSGLYSLSSVVTVPSSSLGTQTYICNVNHKPSNTKVDKKV[human IgG1 Fc not given here]GSGGGSVTGYRLFEEIL
# light: DIQMTQSPSSLSASVGDRVTITCKSSQSLFESSTRKNYLAWYQQKPGKAPKLLIYWASTRESGVPARFSGSGSGTDFTLTISSLEPEDFAVYYCHQYYYQPYTFGQGTKVEIKRTVAAPSVFIFPPSDEQLKSGTASVVCLLNNFYPREAKVQWKVDNALQSGNSQESVTEQDSKDSTYSLSSTLTLSKADYEKHKVYACEVTHQGLSSPVTKSFNRGEC
# B2: hT4VL.FRv40549 (antibody, human IgG1, kappa)
# heavy: EVQLVESGGGLVQPGGSLRLSCAASGYTFTSYVMHWVRQAPGKGLEWVSAINPYNDGNYYADSVKGRFTISRDNSRKTLYLQMNSLRAEDTAVYYCARGAYKRGYAMDYWGQGTTVTVSSASTKGPSVFPLAPSSKSTSGGTAALGCLVKDYFPEPVTVSWNSGALTSGVHTFPAVLQSSGLYSLSSVVTVPSSSLGTQTYICNVNHKPSNTKVDKKV[human IgG1 Fc not given here]GSGGGSVTGYRLFEEIL
# light: DIQMTQSPSSLSASVGDRVTITCKSSQSLFESSTRKNYLAWYQQKPGKAPKLLIYWASTRESGVPARFSGSGSGTDFTLTISSLEPEDFAVYYCYQYYYQPYTFGQGTKVEIKRTVAAPSVFIFPPSDEQLKSGTASVVCLLNNFYPREAKVQWKVDNALQSGNSQESVTEQDSKDSTYSLSSTLTLSKADYEKHKVYACEVTHQGLSSPVTKSFNRGEC
# B3: hT4VL.FRv40550 (antibody, human IgG1, kappa)
# heavy: EVQLVESGGGLVQPGGSLRLSCAASGYTFTSYVMHWVRQAPGKGLEWVSAINPYNDGNYYADSVKGRFTISRDNSRKTLYLQMNSLRAEDTAVYYCARGAYKRGYAMDYWGQGTTVTVSSASTKGPSVFPLAPSSKSTSGGTAALGCLVKDYFPEPVTVSWNSGALTSGVHTFPAVLQSSGLYSLSSVVTVPSSSLGTQTYICNVNHKPSNTKVDKKV[human IgG1 Fc not given here]GSGGGSVTGYRLFEEIL
# light: DIQMTQSPSSLSASVGDRVTITCKSSQSLFESSTRKNYLAWYQQKPGKAPKLLIYWASTRESGVPARFSGSGSGTDFTLTISSLEPEDFAVYYCQQEYYQPYTFGQGTKVEIKRTVAAPSVFIFPPSDEQLKSGTASVVCLLNNFYPREAKVQWKVDNALQSGNSQESVTEQDSKDSTYSLSSTLTLSKADYEKHKVYACEVTHQGLSSPVTKSFNRGEC
# B4: hT4VL.FRv40551 (antibody, human IgG1, kappa)
# heavy: EVQLVESGGGLVQPGGSLRLSCAASGYTFTSYVMHWVRQAPGKGLEWVSAINPYNDGNYYADSVKGRFTISRDNSRKTLYLQMNSLRAEDTAVYYCARGAYKRGYAMDYWGQGTTVTVSSASTKGPSVFPLAPSSKSTSGGTAALGCLVKDYFPEPVTVSWNSGALTSGVHTFPAVLQSSGLYSLSSVVTVPSSSLGTQTYICNVNHKPSNTKVDKKV[human IgG1 Fc not given here]GSGGGSVTGYRLFEEIL
# light: DIQMTQSPSSLSASVGDRVTITCKSSQSLFESSTRKNYLAWYQQKPGKAPKLLIYWASTRESGVPARFSGSGSGTDFTLTISSLEPEDFAVYYCQQFYYQPYTFGQGTKVEIKRTVAAPSVFIFPPSDEQLKSGTASVVCLLNNFYPREAKVQWKVDNALQSGNSQESVTEQDSKDSTYSLSSTLTLSKADYEKHKVYACEVTHQGLSSPVTKSFNRGEC
# B5: hT4VL.FRv40552 (antibody, human IgG1, kappa)
# heavy: EVQLVESGGGLVQPGGSLRLSCAASGYTFTSYVMHWVRQAPGKGLEWVSAINPYNDGNYYADSVKGRFTISRDNSRKTLYLQMNSLRAEDTAVYYCARGAYKRGYAMDYWGQGTTVTVSSASTKGPSVFPLAPSSKSTSGGTAALGCLVKDYFPEPVTVSWNSGALTSGVHTFPAVLQSSGLYSLSSVVTVPSSSLGTQTYICNVNHKPSNTKVDKKV[human IgG1 Fc not given here]GSGGGSVTGYRLFEEIL
# light: DIQMTQSPSSLSASVGDRVTITCKSSQSLFESVTRKNYLAWYQQKPGKAPKLLIYWASTRESGVPARFSGSGSGTDFTLTISSLEPEDFAVYYCYQYYYEPYTFGQGTKVEIKRTVAAPSVFIFPPSDEQLKSGTASVVCLLNNFYPREAKVQWKVDNALQSGNSQESVTEQDSKDSTYSLSSTLTLSKADYEKHKVYACEVTHQGLSSPVTKSFNRGEC
# B6: hT4VL.FRv40553 (antibody, human IgG1, kappa)
# heavy: EVQLVESGGGLVQPGGSLRLSCAASGYTFTSYVMHWVRQAPGKGLEWVSAINPYNDGNYYADSVKGRFTISRDNSRKTLYLQMNSLRAEDTAVYYCARGAYKRGYAMDYWGQGTTVTVSSASTKGPSVFPLAPSSKSTSGGTAALGCLVKDYFPEPVTVSWNSGALTSGVHTFPAVLQSSGLYSLSSVVTVPSSSLGTQTYICNVNHKPSNTKVDKKV[human IgG1 Fc not given here]GSGGGSVTGYRLFEEIL
# light: DIQMTQSPSSLSASVGDRVTITCKSSQSLFESVTRKNYLAWYQQKPGKAPKLLIYWASTRESGVPARFSGSGSGTDFTLTISSLEPEDFAVYYCQQFYYEPYTFGQGTKVEIKRTVAAPSVFIFPPSDEQLKSGTASVVCLLNNFYPREAKVQWKVDNALQSGNSQESVTEQDSKDSTYSLSSTLTLSKADYEKHKVYACEVTHQGLSSPVTKSFNRGEC
# B7: hT4VL.FRv40554 (antibody, human IgG1, kappa)
# heavy: EVQLVESGGGLVQPGGSLRLSCAASGYTFTSYVMHWVRQAPGKGLEWVSAINPYNDGNYYADSVKGRFTISRDNSRKTLYLQMNSLRAEDTAVYYCARGAYKRGYAMDYWGQGTTVTVSSASTKGPSVFPLAPSSKSTSGGTAALGCLVKDYFPEPVTVSWNSGALTSGVHTFPAVLQSSGLYSLSSVVTVPSSSLGTQTYICNVNHKPSNTKVDKKV[human IgG1 Fc not given here]GSGGGSVTGYRLFEEIL
# light: DIQMTQSPSSLSASVGDRVTITCKSSQSLFESRTSKNYLAWYQQKPGKAPKLLIYWASTRESGVPARFSGSGSGTDFTLTISSLEPEDFAVYYCHQYYYEPYTFGQGTKVEIKRTVAAPSVFIFPPSDEQLKSGTASVVCLLNNFYPREAKVQWKVDNALQSGNSQESVTEQDSKDSTYSLSSTLTLSKADYEKHKVYACEVTHQGLSSPVTKSFNRGEC
# B8: hT4VL.FRv40555 (antibody, human IgG1, kappa)
# heavy: EVQLVESGGGLVQPGGSLRLSCAASGYTFTSYVMHWVRQAPGKGLEWVSAINPYNDGNYYADSVKGRFTISRDNSRKTLYLQMNSLRAEDTAVYYCARGAYKRGYAMDYWGQGTTVTVSSASTKGPSVFPLAPSSKSTSGGTAALGCLVKDYFPEPVTVSWNSGALTSGVHTFPAVLQSSGLYSLSSVVTVPSSSLGTQTYICNVNHKPSNTKVDKKV[human IgG1 Fc not given here]GSGGGSVTGYRLFEEIL
# light: DIQMTQSPSSLSASVGDRVTITCKSSQSLFESRTSKNYLAWYQQKPGKAPKLLIYWASTRESGVPARFSGSGSGTDFTLTISSLEPEDFAVYYCYQYYYEPYTFGQGTKVEIKRTVAAPSVFIFPPSDEQLKSGTASVVCLLNNFYPREAKVQWKVDNALQSGNSQESVTEQDSKDSTYSLSSTLTLSKADYEKHKVYACEVTHQGLSSPVTKSFNRGEC
# B9: hT4VL.FRv40556 (antibody, human IgG1, kappa)
# heavy: EVQLVESGGGLVQPGGSLRLSCAASGYTFTSYVMHWVRQAPGKGLEWVSAINPYNDGNYYADSVKGRFTISRDNSRKTLYLQMNSLRAEDTAVYYCARGAYKRGYAMDYWGQGTTVTVSSASTKGPSVFPLAPSSKSTSGGTAALGCLVKDYFPEPVTVSWNSGALTSGVHTFPAVLQSSGLYSLSSVVTVPSSSLGTQTYICNVNHKPSNTKVDKKV[human IgG1 Fc not given here]GSGGGSVTGYRLFEEIL
# light: DIQMTQSPSSLSASVGDRVTITCKSSQSLFESRTRLNYLAWYQQKPGKAPKLLIYWASTRESGVPARFSGSGSGTDFTLTISSLEPEDFAVYYCHQYYYEPYTFGQGTKVEIKRTVAAPSVFIFPPSDEQLKSGTASVVCLLNNFYPREAKVQWKVDNALQSGNSQESVTEQDSKDSTYSLSSTLTLSKADYEKHKVYACEVTHQGLSSPVTKSFNRGEC
# B10: hT4VL.FRv40557 (antibody, human IgG1, kappa)
# heavy: EVQLVESGGGLVQPGGSLRLSCAASGYTFTSYVMHWVRQAPGKGLEWVSAINPYNDGNYYADSVKGRFTISRDNSRKTLYLQMNSLRAEDTAVYYCARGAYKRGYAMDYWGQGTTVTVSSASTKGPSVFPLAPSSKSTSGGTAALGCLVKDYFPEPVTVSWNSGALTSGVHTFPAVLQSSGLYSLSSVVTVPSSSLGTQTYICNVNHKPSNTKVDKKV[human IgG1 Fc not given here]GSGGGSVTGYRLFEEIL
# light: DIQMTQSPSSLSASVGDRVTITCKSSQSLFESRTRLNYLAWYQQKPGKAPKLLIYWASTRESGVPARFSGSGSGTDFTLTISSLEPEDFAVYYCYQYYYEPYTFGQGTKVEIKRTVAAPSVFIFPPSDEQLKSGTASVVCLLNNFYPREAKVQWKVDNALQSGNSQESVTEQDSKDSTYSLSSTLTLSKADYEKHKVYACEVTHQGLSSPVTKSFNRGEC
# B11: hT4VL.FRv40558 (antibody, human IgG1, kappa)
# heavy: EVQLVESGGGLVQPGGSLRLSCAASGYTFTSYVMHWVRQAPGKGLEWVSAINPYNDGNYYADSVKGRFTISRDNSRKTLYLQMNSLRAEDTAVYYCARGAYKRGYAMDYWGQGTTVTVSSASTKGPSVFPLAPSSKSTSGGTAALGCLVKDYFPEPVTVSWNSGALTSGVHTFPAVLQSSGLYSLSSVVTVPSSSLGTQTYICNVNHKPSNTKVDKKV[human IgG1 Fc not given here]GSGGGSVTGYRLFEEIL
# light: DIQMTQSPSSLSASVGDRVTITCKSSQSLFNDKTRKNYLAWYQQKPGKAPKLLIYWASTRESGVPARFSGSGSGTDFTLTISSLEPEDFAVYYCQQEYYEPYTFGQGTKVEIKRTVAAPSVFIFPPSDEQLKSGTASVVCLLNNFYPREAKVQWKVDNALQSGNSQESVTEQDSKDSTYSLSSTLTLSKADYEKHKVYACEVTHQGLSSPVTKSFNRGEC
# Assays:
# [1] = molecular target: ECM (extracellular matrix); assay: ECL plate assay on coated ECM (Matrigel), antibody 3 ug/mL, pH 5.8
# [2] = molecular target: ECM (extracellular matrix); assay: ECL plate assay on coated ECM (Matrigel), antibody 3 ug/mL, pH 7.4
Binder,ECM binding vs Control Ab (pH 5.8) (ratio vs Control Ab) [1],ECM binding vs Control Ab (pH 7.4) (ratio vs Control Ab) [2]
B1,12.2,1.92
B2,27.8,2.58
B3,27.7,2.12
B4,24.1,2.19
B5,24,2.02
B6,25.8,1.84
B7,7.2,1.15
B8,19.5,1.98
B9,8.3,2.49
B10,9.6,2.65
B11,46.2,2.31

# Reference: patent US20240124614A1
